Data on 96 compounds can be found in PubChem BioAssay AID485344 (National Center for Advancing Translational Sciences (NCATS), 2010).

Screen size: about 340,000 compounds; about 6,900 (2%) were called active. No stated cut-off is given here; in the data, active means inhibition above about 30%; inactive means below that, where a call was filed. The entries are a selection whose mix differs from that of the whole data set. Entries without a call were filed so in the source.

Sequence of UniProt P14416 (P14416 whole entry, looked up): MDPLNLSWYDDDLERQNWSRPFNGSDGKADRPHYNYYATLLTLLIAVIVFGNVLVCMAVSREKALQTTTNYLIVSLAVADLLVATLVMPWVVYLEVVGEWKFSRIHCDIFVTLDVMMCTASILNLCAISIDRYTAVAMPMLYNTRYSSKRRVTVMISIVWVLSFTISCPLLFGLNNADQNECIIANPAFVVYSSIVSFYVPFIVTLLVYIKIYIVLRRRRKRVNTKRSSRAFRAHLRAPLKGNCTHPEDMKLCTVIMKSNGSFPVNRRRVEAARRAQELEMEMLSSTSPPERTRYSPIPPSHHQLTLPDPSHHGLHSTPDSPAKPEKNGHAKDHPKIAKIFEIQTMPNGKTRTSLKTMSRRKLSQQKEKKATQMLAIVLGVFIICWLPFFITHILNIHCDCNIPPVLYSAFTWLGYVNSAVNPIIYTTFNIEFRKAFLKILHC

In the assay the target is D(2) dopamine receptor (Homo sapiens) (UniProt P14416). The experiment in a line: HTS Assay for Allosteric Antagonists of the Human D2 Dopamine Receptor: Primary Screen for Antagonists. Further: 0% is about no effect. To be noted: HEK293 TREx D2 cells, calcium flux, dopamine EC80; at 10 µM; stronger effect = higher value. An outline of the steps:
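Antagonism is scored as inhibition of an EC80 dopamine-evoked calcium signal in a force-coupled, tetracycline-inducible HEK293 T-REx D2 line, with compound present 180 s before agonist.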
As to `Cc1oc2c(c1C(=O)NCc1ccccc1F)C1=NCCN1C=N2`, the inhibition was -4.59%.

On to `CC(C)Oc1ccc(CNC(=O)c2cnc3sc(N4CCCC4)nn3c2=O)cc1`, for which the inhibition was 2.46%.

Take `CCOC(=O)NNC(=O)C1CCC(C)CC1` (stereo unspecified): the inhibition came to 6.98%.

`CCOc1ccc(NC(=O)CC2C(=O)N(c3ccc(OC)cc3)C(=O)N2CCC2=CCCCC2)cc1` (stereo unspecified): the inhibition is -15.5%.

For the compound `CC(=O)Nc1cccc(-c2nnc(SCC(=O)c3cc([N+](=O)[O-])ccc3Cl)o2)c1`, the inhibition was 1.53%.

Consider `CCOC(=O)c1cnc2ccc(C(=O)OC)cc2c1Nc1ccc(OCc2ccccc2Cl)cc1`, for which the inhibition is -10.3%.

For `COc1cccc(N2CCN(C(=O)c3ccc4nc(N5CCC(C)CC5)sc4c3)CC2)c1`, the inhibition is -14.2%.

For the compound `CCN(CC)C(=O)Cn1ncc2c([nH]c3ccccc32)c1=O`, the inhibition was determined as 5.92%.

For `Cc1ccccc1NC(=O)CSc1ccc(-c2ccccn2)nn1`, the inhibition was found to be 3.74%.

Take `CCN1CCN(CCCNC(=O)Cn2nc(C)n3c(cc4c(OC)cccc43)c2=O)CC1`: the inhibition stood at 12.1%.

With `COc1ccccc1-c1nn(CCC(=O)Nc2ccc(C)cc2)c2nc(C)cc(C)c12`, the inhibition amounted to 12.6%.

As for `CC1=C(C(N)=O)C(c2ccc(C)cc2)n2nc(SCc3ccccc3)nc2N1` (stereo unspecified), the inhibition is -8.16%.

For the compound `COc1ccc(S(=O)(=O)Nc2cccc(-c3ccc(N4CCCC4)nn3)c2)cc1F`, the inhibition was -10.1%.

For `COc1cc(/C=C(/C#N)c2nc3ccccc3[nH]2)ccc1OCC(=O)Nc1ccccc1C(C)C`, the inhibition was active: 32%.

As to `Cc1nc(-c2ccc(S(=O)(=O)NCc3ccccc3Cl)cc2)co1`, the inhibition worked out at 2.31%.

For `CCCCN(CCCC)C(=O)c1c[nH]c2ccc(S(=O)(=O)Nc3cccc(Cl)c3C)cc2c1=O`, the inhibition worked out at 4.48%.

For the compound `Cc1ccc(C(=O)Nc2cnc3ccccn3c2=O)cc1`, the inhibition is -3.9%.

For the compound `CCCn1c2ccccc2c2cnn(CC(=O)N3CCCC(C(=O)OCC)C3)c(=O)c21` (stereo unspecified), the inhibition was -13.1%.

In the case of `CCN1CCN(C(=O)Cn2ncc3c4ccccc4n(Cc4c(C)cc(C)cc4C)c3c2=O)CC1`, the inhibition is -6.33%.

`Cc1ccc(NC(=O)CCCn2nc(C)c3c(C)n(-c4ccccc4)nc3c2=O)c(Cl)c1`: the inhibition is -7.32%.

Regarding `COC(=O)CN1C(C(=O)c2ccccc2)=C(OC(=O)c2ccccc2)c2ccccc2S1(=O)=O`, the inhibition was -7.18%.

`CCCN1C(C(=O)c2ccccc2)=C(OC(=O)COc2ccc(C)cc2)c2ccccc2S1(=O)=O`: the inhibition is -10.9%.

As to `COc1ccc(S(=O)(=O)N(CC(=O)Nc2ccc(Br)cc2)Cc2ccccc2)cc1`, the inhibition is -8.5%.

Regarding `Cc1ccc(NC(=O)C2CCCN(S(=O)(=O)c3cccs3)C2)c(C)c1` (stereo unspecified), the inhibition is -1.09%.

As for `Cc1cc(O)c(CN2CCN(c3ccccc3)CC2)c2oc(=O)cc(C)c12`, the inhibition was 12.7%.

As for `CCOC(=O)c1cc(NC(=O)c2ccc(F)cc2)c(=O)n2c1oc1ccc(Cl)cc12`, the inhibition was -7.55%.

For `CCCSCCCNC(=O)Cn1c(-c2cccs2)cc2ccccc21`, the inhibition came to 20.6%.

Take `O=C(Nc1c2c(nn1-c1ccc(Cl)cc1)CS(=O)(=O)C2)c1ccc(Br)cc1`: the inhibition was found to be 27.1%.

On to `CCc1cccc(NC(=O)C2CCN(S(=O)(=O)c3ccc4c(c3)NC(=O)CO4)CC2)c1`, for which the inhibition is active: 30.3%.

`Cc1ccc(CN(C(=O)COc2ccc(F)cc2)C2CCS(=O)(=O)C2)o1` (stereo unspecified): the inhibition is 6.06%.

As to `CCn1cc(S(=O)(=O)c2ccccc2)c(=O)c2cc(F)c(F)cc21`, the inhibition is -1.96%.

In the case of `Cc1ccc(-n2ncc(C(=O)NCCN3CCC(Cc4ccccc4)CC3)c2C2CCN(C(=O)OC(C)(C)C)CC2)cc1`, the inhibition is -7.49%.

With `O=C(NCC(c1cccnc1)N1CCc2ccccc21)c1ccc(Cl)cc1` (stereo unspecified), the inhibition is -14%.

Regarding `Cc1cc(NS(=O)(=O)c2ccc(NC(=O)COc3cc(C)c(Br)cc3C(C)C)cc2)no1`, the inhibition is 6.88%.

With `CC(C)CCNC(=O)c1ccc2nc(Cc3ccccc3)oc2c1`, the inhibition is -24.4%.

Turning to `CCOc1ccc(N(CC)C(=O)Cn2cnc3sc(C)c(S(=O)(=O)N4CCN(c5ncccn5)CC4)c3c2=O)cc1`, the inhibition was found to be 3.92%.

Take `COc1ccc(-c2cc(C(F)(F)F)nc(SCC(=O)NC(C)c3ccccc3)n2)cc1` (stereo unspecified): the inhibition was -8.13%.

Regarding `COc1cccc2cc(C(=O)Nc3ccc(C)cc3)c(=O)oc12`, the inhibition worked out at 4.62%.

Regarding `Cc1ccc(CCNC(=O)c2ccc3c(c2)N(Cc2cccc(F)c2)C(=O)c2ccccc2S3)cc1`, the inhibition was 2.77%.

In the case of `Cc1oc2c(CN3CCC(C)CC3)c(O)ccc2c(=O)c1-c1ccccc1`, the inhibition is active: 44.5%.

`O=C(NCc1nnc(SCC(=O)N2CCCC2)o1)c1c(F)cccc1F`: the inhibition is active: 32.1%.

As for `Cc1ccc2c(=O)cc(C(=O)Nc3sc4c(c3C(=O)NCc3cccnc3)CCCC4)oc2c1`, the inhibition is 4.65%.

Turning to `CCOC(=O)c1ccc(NC(=O)C2=C(C)C(=O)OC23CCN(C(C)C)CC3)cc1`, the inhibition turned out to be 3.79%.

In the case of `CCO[C@@H]1OC(C(=O)O)=C[C@H](c2csc3ccccc23)[C@H]1CCCO`, the inhibition was active: 32%.

Regarding `O=C(CCNS(=O)(=O)c1ccc2c(c1)CCN2C(=O)C1CC1)Nc1ccc(OC(F)(F)F)cc1`, the inhibition worked out at 10.7%.

Regarding `COc1cccc(C(=O)Nc2ccc3nc(SCCOc4ccccc4)sc3c2)c1`, the inhibition is -16%.

As to `CCc1ccc2oc(-c3cc(NC(=O)c4cccs4)ccc3Cl)nc2c1`, the inhibition was found to be 14.5%.

Regarding `Cc1c(C)c2c(OCC(=O)NCc3ccco3)cc3c(c2oc1=O)CCC(C)(C)O3`, the inhibition was active: 30%.

With `CCC(C)NC(=O)Cn1ccc2cc(S(=O)(=O)N3CCCCCC3)ccc21` (stereo unspecified), the inhibition came to 11.4%.

As for `Cc1cccc(N2CCN(CCCNc3ncnc4onc(-c5ccc(F)cc5)c34)CC2C)c1` (stereo unspecified), the inhibition is 14.1%.

Consider `COc1ccc(C)cc1S(=O)(=O)N(C)CC(=O)NCc1ccncc1`, for which the inhibition is active: 32.8%.

`O=C(Nc1ccccc1C(=O)N1CCCCC1)c1nsc2ccccc12`: the inhibition is -9.67%.

For `CCCCCOc1ccc(/C=C/C(=O)Nc2sc3c(c2C(=O)OCC)CCC3)cc1OC`, the inhibition stood at 5.71%.

In the case of `CCCCOc1cccc(C2c3c(-c4cc(C)ccc4O)n[nH]c3C(=O)N2CCOC)c1` (stereo unspecified), the inhibition was -14.3%.

As to `CNC(=O)c1cnc2sc(N3CCC(C)CC3)nn2c1=O`, the inhibition is 2.76%.

As for `COc1cccc(Nc2nc(CC(C)=O)ns2)c1`, the inhibition is active: 32.8%.

`COc1ccc(NC(=O)CNC(=O)Cn2ccc3ccccc3c2=O)cc1OC`: the inhibition was determined as 1.73%.

`CCc1ccc(NC(=O)c2cc(=O)c3ccc(C)c(C)c3o2)cc1`: the inhibition was -8.99%.

On to `O=C(Cc1ccc(-c2ccccc2)cc1)NCCS(=O)(=O)N1CCN(c2ccccc2F)CC1`, for which the inhibition is -20.6%.

`COC(=O)CN1C(=O)CSc2ccc(S(=O)(=O)Nc3ccc(C)c(Cl)c3)cc21`: the inhibition was determined as 1.32%.

On to `COc1cccc(NC(=O)C2CCCN(c3ncnc4onc(C)c34)C2)c1` (stereo unspecified), for which the inhibition turned out to be 6.29%.

Regarding `CCC(C)OC(=O)/C(C#N)=C/c1ccc(-c2ccc(Br)cc2)o1` (stereo unspecified), the inhibition was 2.28%.

On to `O=C(CCCCCn1c(=O)c2sccc2n(CC(=O)Nc2ccccc2F)c1=O)NCc1ccc2c(c1)OCO2`, for which the inhibition was -8.44%.

On to `Cc1ccc(C2CC(=O)Nc3c2c(C)nn3-c2nc(C)cc(C)n2)c(C)c1` (stereo unspecified), for which the inhibition worked out at 3.85%.

Turning to `COc1cc(CN(C(=O)COc2ccccc2)c2ccccn2)cc(OC)c1OC`, the inhibition is -14%.

Turning to `CCc1ccc(S(=O)(=O)c2nnn3c2nc(N(CC)Cc2ccccc2)c2cc(Cl)ccc23)cc1`, the inhibition was -13.3%.

With `Cc1cc2n(n1)CCCN2C(=O)Nc1ccccc1C(F)(F)F`, the inhibition turned out to be 0.374%.

Turning to `CCCCN(C)C(=O)CCC(=O)NNc1nc2ccccc2c2nc(C)nn12`, the inhibition stood at 12.3%.

With `CCC(Nc1ccc(-c2nc(-c3ccccn3)no2)cc1[N+](=O)[O-])c1ccccc1` (stereo unspecified), the inhibition was determined as 8.42%.

Take `Cc1oc(-c2cccc(Cl)c2)nc1Cn1c(SCc2ccc(F)cc2)nc2cccnc21`: the inhibition was -2.94%.

On to `Cc1cccc(N2CCn3c2nc2c3c(=O)n(CCCc3ccccc3)c(=O)n2C)c1`, for which the inhibition was -8.58%.

`COc1cc2c(C(=O)N(C)c3cccc(C(F)(F)F)c3)cn(CC(C)C)c(=O)c2cc1OC`: the inhibition was 15.3%.

Consider `Cc1ccc(C(c2sc3nc(-c4ccco4)nn3c2O)N2CCN(c3ccc(F)cc3)CC2)cc1` (stereo unspecified), for which the inhibition was 11.8%.

For the compound `COc1ccc(-c2cn3nc(SCC(=O)Nc4cccc(C)c4C)ccc3n2)cc1`, the inhibition is -15.1%.

On to `CCOCCn1ccc2c(OCC(=O)Nc3cc(C)cc(C)c3)cccc2c1=O`, for which the inhibition was -11.5%.

As for `CC1CCN(C(=O)CN2CC(C)Sc3ccccc32)CC1` (stereo unspecified), the inhibition was found to be 11.6%.

Take `Cc1ccc(NC(=O)N2CC=C(c3c[nH]c4ccccc34)CC2)cc1Cl`: the inhibition was -2.91%.

As for `Cc1cccc(C(=O)Nc2ccc(OCc3cc(=O)n4ccc(C)cc4n3)cc2)c1`, the inhibition is -13.1%.

Regarding `Cc1ccc(NS(=O)(=O)c2ccc(-n3cccn3)cc2)c(Br)c1`, the inhibition turned out to be 8.52%.

As to `COc1ccc(Nc2nc3ccccc3n3c(N)nnc23)cc1`, the inhibition was -5.13%.

`Cc1c[nH]c2cccc(OCC(CNC(C)(C)C)OC(=O)c3ccccc3)c12` (stereo unspecified): the inhibition was active: 70%.

`OCC1(CCc2ccccc2)CCCN(C/C=C/c2ccccc2)C1` (stereo unspecified): the inhibition is active: 44.8%.

Turning to `Cc1ccccc1C(=O)N1CCC(c2nc(-c3ccc(S(=O)(=O)N4CCCC4)cc3)no2)CC1`, the inhibition was -10.9%.

Turning to `Clc1cccc(Nc2ncnc3c2nc2n3CCCCC2)c1`, the inhibition is 2.52%.

On to `Cn1c(=O)oc2cc(S(=O)(=O)CCC(=O)NCc3ccc(Cl)cc3)ccc21`, for which the inhibition is -5.42%.

For `Cc1ccsc1CN(Cc1ccco1)c1cnc(S(C)(=O)=O)nc1C(=O)Nc1ccc(Cl)cc1`, the inhibition stood at 15%.

`C=CCNC(=O)c1ccccc1NC(=O)COc1ccccc1`: the inhibition is active: 58.9%.

Regarding `COc1cc(Nc2nc3c(S(=O)(=O)c4ccccc4)nnn3c3ccc(Cl)cc23)cc(OC)c1`, the inhibition is -5.24%.

Take `CCN(C1CCCCC1)S(=O)(=O)c1ccc(S(=O)(=O)N2CCN(CCC#N)CC2)cc1`: the inhibition is active: 37.6%.

`O=C(c1cncc(Br)c1)N1CCN(S(=O)(=O)c2ccccc2C(F)(F)F)CC1`: the inhibition was active: 40.4%.

Regarding `O=c1c2oc3ccccc3c2n(Cc2ccccc2Cl)c(=O)n1Cc1ccc2c(c1)OCO2`, the inhibition stood at 3.52%.

With `CCOC(=O)c1cnn(CCOC(=O)Cc2cccs2)c1NC(=O)Cc1cccs1`, the inhibition is active: 33.5%.

Turning to `COc1ccccc1Nc1cc(C(=O)NCCCN(C)C2CCCCC2)c2ccccc2n1`, the inhibition was found to be 16.9%.

Regarding `Cc1ccc2c(c1)N(C(=O)CCC(=O)NCc1ccccc1F)CC(C)O2` (stereo unspecified), the inhibition was determined as 13.4%.

Consider `O=C(COc1ccc(Cl)cc1)OCc1cc(=O)n2nc(C3CCCCC3)sc2n1`, for which the inhibition stood at 1.68%.

Regarding `CCOC(=O)c1ccc2c(c1)N(Cc1cc(C)ccc1C)C(=O)c1ccccc1S2(=O)=O`, the inhibition was -11.7%.
